From the supplement of paper PMC5499739 come the findings set out here.

Over roughly 16,000 sequences, “Z-score” has its median near -0.37; the highest 2% begin near 3.1. The list shows a part of the results.

The subject of the experiment is RBM10 RRM1-ZnF-RRM2 (GST-tagged construct). Description: RNAcompete 7-mer binding Z-score; higher = stronger binding preference. In short, it runs like this: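 Bound RNA was identified by microarray hybridisation after GST-tagged RBM10 constructs (20 pmol) had been mixed with 1.5 nmol of a designed pool of 241 399 RNAs up to 41 nt, transcribed from microarray-derived DNA templates. Binding ran for 30 min at 4°C in 1 ml Hepes pH 7.8 buffer with KCl, NaCl, glycerol, DTT, BSA and glutathione Sepharose beads, with four 2-min washes at 4°C afterwards. For every heptamer motif, a one-sided Z-score for enrichment was computed across the probes that contained it.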
As for GAGCAUG, the “RNAcompete 7-mer binding Z-score” value was 0.483.

With ACAUAGA, the “RNAcompete 7-mer binding Z-score” value worked out at 0.0932.

For the sequence AGCCCAU, the “RNAcompete 7-mer binding Z-score” value is -0.857.

As to CACAUUA, the “RNAcompete 7-mer binding Z-score” value is -0.435.

As to GAGAUCG, the “RNAcompete 7-mer binding Z-score” value was found to be 0.439.

As for AACCGAU, the “RNAcompete 7-mer binding Z-score” value is -0.49.

Regarding UAAUCAA, the “RNAcompete 7-mer binding Z-score” value was -0.249.

As for CAUAAAA, the “RNAcompete 7-mer binding Z-score” value is -0.347.

As for CCAAAUA, the “RNAcompete 7-mer binding Z-score” value is -0.584.

Regarding GAAACAU, the “RNAcompete 7-mer binding Z-score” value is -0.169.

In the case of CCUGUGC, the “RNAcompete 7-mer binding Z-score” value was -0.712.

Regarding UCAUGGA, the “RNAcompete 7-mer binding Z-score” value is 0.567.

With AGGGGGA, the “RNAcompete 7-mer binding Z-score” value was found to be 2.14.

GUAGCGG: the “RNAcompete 7-mer binding Z-score” value was found to be 1.93.

As for CGAGGCA, the “RNAcompete 7-mer binding Z-score” value came out at 1.4.

On to AUAAUGU, for which the “RNAcompete 7-mer binding Z-score” value is -0.136.

Turning to CCGGACA, the “RNAcompete 7-mer binding Z-score” value was -0.504.

CGCCCGU: the “RNAcompete 7-mer binding Z-score” value was -0.621.

Take CCCAAAG: the “RNAcompete 7-mer binding Z-score” value was -0.595.

As to UCGGGGC, the “RNAcompete 7-mer binding Z-score” value turned out to be 1.85.

As for GUCGUAU, the “RNAcompete 7-mer binding Z-score” value is 0.381.

On to AUCAAAA, for which the “RNAcompete 7-mer binding Z-score” value is -0.388.

In the case of AAGGAAG, the “RNAcompete 7-mer binding Z-score” value was determined as 4.04.

Regarding CUAGUAU, the “RNAcompete 7-mer binding Z-score” value is -0.413.

Consider UUCCCCA, for which the “RNAcompete 7-mer binding Z-score” value was -0.65.

GUUUCGU: the “RNAcompete 7-mer binding Z-score” value is -0.176.

In the case of GCUGCCC, the “RNAcompete 7-mer binding Z-score” value was -0.613.

Take GCUCGGU: the “RNAcompete 7-mer binding Z-score” value was found to be 0.0058.

For the sequence GCAUGCU, the “RNAcompete 7-mer binding Z-score” value is -0.53.

In the case of UCGCCGA, the “RNAcompete 7-mer binding Z-score” value is -0.752.

For UGUAGGA, the “RNAcompete 7-mer binding Z-score” value was 1.9.

Regarding AAUGCAA, the “RNAcompete 7-mer binding Z-score” value was 0.0714.

In the case of CUGCAAU, the “RNAcompete 7-mer binding Z-score” value was -0.675.

On to GGCAAUC, for which the “RNAcompete 7-mer binding Z-score” value came to 0.162.

Take AUACAAA: the “RNAcompete 7-mer binding Z-score” value was -0.26.

For the sequence CGGUAUU, the “RNAcompete 7-mer binding Z-score” value is 0.162.

As for AGUCCCC, the “RNAcompete 7-mer binding Z-score” value is -0.395.

On to ACCUGGC, for which the “RNAcompete 7-mer binding Z-score” value was -0.643.

CAAAGAU: the “RNAcompete 7-mer binding Z-score” value is -0.282.

For the sequence CGACACU, the “RNAcompete 7-mer binding Z-score” value was -0.541.

On to UAAGCUA, for which the “RNAcompete 7-mer binding Z-score” value was -0.406.

As to UUAUGGU, the “RNAcompete 7-mer binding Z-score” value was 0.272.

For AAUUUGU, the “RNAcompete 7-mer binding Z-score” value is -0.551.

Take UGAUGUG: the “RNAcompete 7-mer binding Z-score” value came out at 0.712.

As to CGCUUUC, the “RNAcompete 7-mer binding Z-score” value is -0.77.

As to GCUAACA, the “RNAcompete 7-mer binding Z-score” value is -0.202.

As to GUGCCGC, the “RNAcompete 7-mer binding Z-score” value was -0.231.

In the case of AGUUCGU, the “RNAcompete 7-mer binding Z-score” value is -0.271.

As to AUGGACC, the “RNAcompete 7-mer binding Z-score” value came to 0.599.

In the case of UUGGUCU, the “RNAcompete 7-mer binding Z-score” value is -0.3.

For the sequence AUUUACU, the “RNAcompete 7-mer binding Z-score” value is -0.668.

GUUCCUG: the “RNAcompete 7-mer binding Z-score” value is -0.632.

For the sequence GCGAUCC, the “RNAcompete 7-mer binding Z-score” value was -0.672.

As for UCUUAAU, the “RNAcompete 7-mer binding Z-score” value is -0.672.

Take CCUAUUG: the “RNAcompete 7-mer binding Z-score” value is -0.65.

With UUGCCCA, the “RNAcompete 7-mer binding Z-score” value is -0.763.

For the sequence CGGAUCC, the “RNAcompete 7-mer binding Z-score” value is -0.067.

GCGCUAA: the “RNAcompete 7-mer binding Z-score” value is -0.599.

GCAGAGA: the “RNAcompete 7-mer binding Z-score” value was 1.16.

Take UUUCCAG: the “RNAcompete 7-mer binding Z-score” value was -0.646.

Turning to UACAUCU, the “RNAcompete 7-mer binding Z-score” value is -0.741.

With AGGUGCC, the “RNAcompete 7-mer binding Z-score” value is 0.192.

In the case of AAGAUUU, the “RNAcompete 7-mer binding Z-score” value is -0.588.

On to CGUCCCC, for which the “RNAcompete 7-mer binding Z-score” value was -0.439.

Turning to CACCCGU, the “RNAcompete 7-mer binding Z-score” value was -0.624.

As for GAUAUCA, the “RNAcompete 7-mer binding Z-score” value was -0.198.

With CAAUCUA, the “RNAcompete 7-mer binding Z-score” value was -0.712.

For UUCACAC, the “RNAcompete 7-mer binding Z-score” value is -0.763.

For the sequence UGGACGU, the “RNAcompete 7-mer binding Z-score” value came to 1.24.

With ACAUCUU, the “RNAcompete 7-mer binding Z-score” value was -0.872.

In the case of AACGUCC, the “RNAcompete 7-mer binding Z-score” value is -0.865.

As for AGGGUUU, the “RNAcompete 7-mer binding Z-score” value turned out to be 2.4.

For the sequence CGGCGCC, the “RNAcompete 7-mer binding Z-score” value is -0.318.

As for CUCGUAU, the “RNAcompete 7-mer binding Z-score” value is -0.57.

On to GUUGUGG, for which the “RNAcompete 7-mer binding Z-score” value was found to be 1.75.

With GUGAAAA, the “RNAcompete 7-mer binding Z-score” value stood at 0.297.

As for UACGGCU, the “RNAcompete 7-mer binding Z-score” value was -0.333.

As to CCUCAGG, the “RNAcompete 7-mer binding Z-score” value is -0.493.

In the case of GAAUAUC, the “RNAcompete 7-mer binding Z-score” value was -0.453.

Take GGAUAAG: the “RNAcompete 7-mer binding Z-score” value came out at 2.3.

As for UUUCUCU, the “RNAcompete 7-mer binding Z-score” value was -0.664.

For the sequence GGUUCUA, the “RNAcompete 7-mer binding Z-score” value was -0.289.

With UGGCACC, the “RNAcompete 7-mer binding Z-score” value is -0.0998.

Regarding CGGGUAA, the “RNAcompete 7-mer binding Z-score” value turned out to be 1.81.

For UUACAAG, the “RNAcompete 7-mer binding Z-score” value is -0.296.

Consider GAAGGAU, for which the “RNAcompete 7-mer binding Z-score” value was 3.32.

Turning to AAGUGAA, the “RNAcompete 7-mer binding Z-score” value was found to be 1.05.

Consider GUCCUUA, for which the “RNAcompete 7-mer binding Z-score” value was -0.712.

As for GGUGAGG, the “RNAcompete 7-mer binding Z-score” value was determined as 4.3.

Turning to AUGCCGC, the “RNAcompete 7-mer binding Z-score” value was -0.741.

As for GAAGUUG, the “RNAcompete 7-mer binding Z-score” value turned out to be 1.16.

As to GCGUACC, the “RNAcompete 7-mer binding Z-score” value is -0.413.

In the case of GCCCCCU, the “RNAcompete 7-mer binding Z-score” value is -0.551.

Take ACUUCAU: the “RNAcompete 7-mer binding Z-score” value is -0.77.

As for CGGUGCC, the “RNAcompete 7-mer binding Z-score” value was -0.122.

For CUUGCAC, the “RNAcompete 7-mer binding Z-score” value was -0.876.

Take GUUGAAU: the “RNAcompete 7-mer binding Z-score” value was 0.0459.

In the case of UUAGGGU, the “RNAcompete 7-mer binding Z-score” value was determined as 3.02.

As to AACACUU, the “RNAcompete 7-mer binding Z-score” value was -0.734.

Take AGGUUAG: the “RNAcompete 7-mer binding Z-score” value stood at 2.16.

GAUACGC: the “RNAcompete 7-mer binding Z-score” value is -0.347.

For ACAACAG, the “RNAcompete 7-mer binding Z-score” value came out at 0.359.

With AACUGCA, the “RNAcompete 7-mer binding Z-score” value is -0.369.

Consider GAUGGGA, for which the “RNAcompete 7-mer binding Z-score” value was 3.8.

Regarding GUUAUCA, the “RNAcompete 7-mer binding Z-score” value was -0.165.

On to GACUUCC, for which the “RNAcompete 7-mer binding Z-score” value was -0.887.

Turning to GCAGGGG, the “RNAcompete 7-mer binding Z-score” value came to 3.15.

On to AAAAAGA, for which the “RNAcompete 7-mer binding Z-score” value was 0.024.

As for AUUCCAG, the “RNAcompete 7-mer binding Z-score” value is -0.395.

For the sequence GACAUAU, the “RNAcompete 7-mer binding Z-score” value was -0.293.

Regarding CUGUUGG, the “RNAcompete 7-mer binding Z-score” value is -0.439.

With UAAUUGC, the “RNAcompete 7-mer binding Z-score” value is -0.522.

For UUCCAGU, the “RNAcompete 7-mer binding Z-score” value is -0.559.

AAACCGA: the “RNAcompete 7-mer binding Z-score” value was -0.431.

For UAAGGAG, the “RNAcompete 7-mer binding Z-score” value is 1.9.

As for UGAUUUA, the “RNAcompete 7-mer binding Z-score” value was -0.3.

GUGGGUA: the “RNAcompete 7-mer binding Z-score” value was determined as 3.07.
